# Scores whose standard error is large were omitted. The source holds two more conditions with little spread; they are left out. In variant names, del marks residues removed and ins residues inserted between the two positions. For some assays here: The data file names ogerin without a concentration.
# B1: GPR68, Q15743 (parent)
# chain: MGNITADNSSMSCTIDHTIHQTLAPVVYVTVLVVGFPANCLSLYFGYLQIKARNELGVYLCNLTVADLFYICSLPFWLQYVLQHDNWSHGDLSCQVCGILLYENIYISVGFLCCISVDRYLAVAHPFRFHQFRTLKAAVGVSVVIWAKELLTSIYFLMHEEVIEDENQHRVCFEHYPIQAWQRAINYYRFLVGFLFPICLLLASYQGILRAVRRSHGTQKSRKDQIQRLVLSTVVIFLACFLPYHVLLLVRSVWEASCDFAKGVFNAYHFSLLLTSFNCVADPVLYCFVSETTHRDLARLRGACLAFLTCSRTGRAREAYPLGAPEASGKSGAQGEEPELLTKLHPAFQTPNSPGSGGFPTGRLA
# Tests used:
# [1] = variants of: B1; assay: cAMP reporter score (Enrich2 score, wild type = 0); higher = more signal; HEK293T, FACS bins
# [2] = variants of: B1; assay: surface expression score (Enrich2 score, wild type = 0); higher = more signal; HEK293T, FACS bins
Variant,cAMP reporter score ([1]; pH 5.5),cAMP reporter score ([1]; pH 6),"cAMP reporter score ([1]; pH 6.5, modulator: ogerin)",surface expression score [2],"cAMP reporter score ([1]; pH 6, modulator: ogerin)"
L32G,-0.239,-1.41,-0.614,-1.28,
L32H,-1.29,-0.676,-1.53,-2.41,-1.06
L32I,-0.606,1.54,0.885,-0.902,-0.629
L32K,-1.02,-1.61,-0.592,-3.16,-1.4
L32M,1.06,2.38,4.1,,1.25
L32N,-1.14,-0.519,-0.361,-1.81,-1.28
L32P,-1.28,-0.947,-1.41,-2.08,-1.78
L32Q,-0.431,-0.183,,,-0.666
L32R,-1.81,-0.955,-1.28,-2.66,-1.47
L32S,-0.159,,-1.9,-2.54,
L32T,-0.589,-0.882,-0.485,-1.93,-0.944
L32V,-0.477,-0.097,-0.892,-2.02,-1.23
L32W,-1.67,-1.33,-1.43,-1.42,-1.33
L32Y,-1.51,-1.66,-1.22,,
L32_V33insG,-1.65,-0.504,-1.01,-2.04,-0.528
V33del,-1.36,-1.13,-1.57,-1.7,-1.75
V34_F36del,-0.97,-0.677,-0.484,-2.64,-1.44
V34_G35insGSG,-0.919,-1.64,-1.18,-2.48,-1.8
F36_A38del,-1.45,-0.419,-0.989,-2.26,-1.29
F36_P37del,-1.06,-0.463,-0.875,-2.33,-1.21
P37_N39del,-1.41,-1.04,-1.03,-2.58,-1.3

Variant,cAMP reporter score ([1]; pH 5.5),cAMP reporter score ([1]; pH 6),"cAMP reporter score ([1]; pH 6.5, modulator: ogerin)",surface expression score [2],"cAMP reporter score ([1]; pH 6, modulator: ogerin)"
A38C,-0.427,-0.187,-0.585,-1.08,-0.062
A38D,-1.56,-0.704,-0.428,-2.11,-1.41
A38E,-1.41,-1.51,-1.35,-1.96,-1.21
A38F,-0.728,0.902,0.874,-0.111,-0.326
A38G,-1.21,-1.1,-0.705,-1.66,-0.734
A38H,-1.17,-0.833,-1.88,-2.38,-2.19
A38I,-0.137,-0.802,-1.16,0.569,-0.423
A38K,-0.624,,-0.393,-3.22,-0.455
A38L,1.46,3.51,3.32,1.99,1.31
A38M,-1.1,-0.247,-0.324,0.501,-1.44
A38N,-1.42,-0.971,-1.2,-2.15,-1.51
A38P,-0.415,0.2,-0.162,-2.38,-0.52
A38Q,-0.793,,,-2.97,
A38R,-2.05,-0.747,-1.01,-1.89,-1.73
A38S,-1.14,-0.737,-0.435,-2.13,-1.32
A38T,-0.808,-0.375,-1.13,-1.15,-1.42
A38V,-0.066,-0.427,-0.925,0.372,-0.832
A38W,-1.57,,-0.822,-0.591,-2.11
A38Y,-1.24,-1.29,-0.53,,-1.39
A38_C40del,-1.29,-0.295,-0.467,-2.15,-0.757
N39A,-1.11,-0.533,-0.918,0.886,-1.18

Variant,cAMP reporter score ([1]; pH 5.5),cAMP reporter score ([1]; pH 6),"cAMP reporter score ([1]; pH 6.5, modulator: ogerin)",surface expression score [2],"cAMP reporter score ([1]; pH 6, modulator: ogerin)"
N39C,-0.585,-1.29,-1.36,0.18,-0.645
N39D,-2.14,,-0.775,-2.43,-1.62
N39E,-2.21,-2,-0.791,-2.14,-0.94
N39F,-0.735,-0.611,-1.06,-2.28,-1.28
N39G,-1.24,-0.634,-0.826,-0.088,-1.18
N39H,-0.956,-0.324,-0.427,0.094,-1.15
N39I,-1.12,-0.438,-0.38,-2.13,-1.16
N39K,-1.4,-0.69,-0.33,-1.9,-1.5
N39L,-1.18,-0.612,-1.15,-1.87,-0.993
N39M,-0.892,-0.036,-1.12,-2.07,-0.963
N39P,-0.934,-1.75,-0.648,-2.96,-2.45
N39Q,-1.18,-0.2,-0.769,-0.82,-1.94
N39R,-1.24,-0.605,-0.602,-2.54,-1.43
N39S,-0.635,-0.562,-0.604,0.355,-0.512
N39T,-1.13,-0.761,-0.554,-1.11,-1.11
N39V,-1.39,-1.01,-1.04,-2.01,-1.37
N39W,-1.13,-0.665,-0.835,-2.24,-1.03
N39Y,-1.13,-0.767,-0.951,-2.12,-0.871
N39_C40insGS,-1.83,-0.599,-0.886,,-1.66
N39del,-1.28,-0.38,-0.861,-2.3,-1.65
C40_L41del,-1.07,-0.775,-1.15,-2.62,-0.274

# — the GPR68 mutational scans of Howard et al. (2025)
